“And” between values parts separate entries of the source, which are not always exact repeats. Equal values may be shown once. ± gives the uncertainty stated by the source. The source gives many values for each of these; only a part stands here.
Test: xn = mol fraction of the nth substance listed

In the case of `CC(C)[C@H](N)C(=O)O` + O, the viscosity (293.15 K, 100 kPa, x1 = 0.00045) is reported as 1.009 ± 0.0063 mPa·s, the viscosity (293.15 K, 100 kPa, x1 = 0.0009) is reported as 1.016 ± 0.0063 mPa·s and the viscosity (293.15 K, 100 kPa, x1 = 0.0013) is reported as 1.024 ± 0.0064 mPa·s. The viscosity (293.15 K, 100 kPa, x1 = 0.00166) was 1.049 ± 0.041 mPa·s, the viscosity (293.15 K, 100 kPa, x1 = 0.0018) was 1.031 ± 0.0064 mPa·s and the viscosity (293.15 K, 100 kPa, x1 = 0.00314) was 1.052 ± 0.0065 mPa·s. For the same molecule, the viscosity (293.15 K, 100 kPa, x1 = 0.003502) was 1.104 ± 0.041 mPa·s, the viscosity (293.15 K, 100 kPa, x1 = 0.00359) was 1.059 ± 0.0066 mPa·s and the viscosity (293.15 K, 100 kPa, x1 = 0.005397) was 1.165 ± 0.041 mPa·s. The viscosity (293.15 K, 100 kPa, x1 = 0.007209) was 1.222 ± 0.041 mPa·s, the viscosity (293.15 K, 100 kPa, x1 = 0.008575) was 1.272 ± 0.041 mPa·s and the viscosity (293.15 K, 101 kPa, x1 = 0.000452) was 1.007 ± 0.021 mPa·s. It also gave a viscosity (293.15 K, 101 kPa, x1 = 0.0009) of 1.016 ± 0.022 mPa·s, a viscosity (293.15 K, 101 kPa, x1 = 0.00135) of 1.026 ± 0.022 mPa·s and a viscosity (293.15 K, 101 kPa, x1 = 0.002245) of 1.046 ± 0.022 mPa·s. The viscosity (293.15 K, 101 kPa, x1 = 0.002695) was 1.056 ± 0.022 mPa·s, the viscosity (298.15 K, 100 kPa, x1 = 0.00045) was 0.8968 ± 0.0057 mPa·s and the viscosity (298.15 K, 100 kPa, x1 = 0.0013) was 0.9089 ± 0.0058 mPa·s. For the same molecule, the viscosity (298.15 K, 100 kPa, x1 = 0.00166) was 0.936 ± 0.041 mPa·s, the viscosity (298.15 K, 100 kPa, x1 = 0.0018) was 0.9146 ± 0.0058 mPa·s and the viscosity (298.15 K, 100 kPa, x1 = 0.00225) was 0.9211 ± 0.0058 mPa·s. For the same molecule, the viscosity (298.15 K, 100 kPa, x1 = 0.00269) was 0.9267 ± 0.0059 mPa·s, the viscosity (298.15 K, 100 kPa, x1 = 0.00314) was 0.9336 ± 0.0059 mPa·s and the viscosity (298.15 K, 100 kPa, x1 = 0.003502) was 0.986 ± 0.041 mPa·s. The viscosity (298.15 K, 100 kPa, x1 = 0.00359) was 0.9386 ± 0.0059 mPa·s, the viscosity (298.15 K, 100 kPa, x1 = 0.005397) was 1.037 ± 0.041 mPa·s and the viscosity (298.15 K, 100 kPa, x1 = 0.007209) was 1.087 ± 0.041 mPa·s. The viscosity (298.15 K, 100 kPa, x1 = 0.008575) was 1.127 ± 0.041 mPa·s, the viscosity (298.15 K, 101 kPa, x1 = 0.000452) was 0.8955 ± 0.019 mPa·s and the viscosity (298.15 K, 101 kPa, x1 = 0.0009) was 0.9037 ± 0.019 mPa·s. It also gave a viscosity (298.15 K, 101 kPa, x1 = 0.00135) of 0.9125 ± 0.019 mPa·s, a viscosity (298.15 K, 101 kPa, x1 = 0.0018) of 0.9217 ± 0.02 mPa·s and a viscosity (298.15 K, 101 kPa, x1 = 0.002245) of 0.931 ± 0.02 mPa·s. For the same molecule, the viscosity (298.15 K, 101 kPa, x1 = 0.002695) was 0.9403 ± 0.02 mPa·s, the viscosity (303.15 K, 100 kPa, x1 = 0.00045) was 0.8025 ± 0.0052 mPa·s and the viscosity (303.15 K, 100 kPa, x1 = 0.0009) was 0.8073 ± 0.0052 mPa·s. It also gave a viscosity (303.15 K, 100 kPa, x1 = 0.0013) of 0.8122 ± 0.0052 mPa·s, a viscosity (303.15 K, 100 kPa, x1 = 0.00166) of 0.839 ± 0.041 mPa·s and a viscosity (303.15 K, 100 kPa, x1 = 0.0018) of 0.8173 ± 0.0053 mPa·s. For the same molecule, the viscosity (303.15 K, 100 kPa, x1 = 0.00225) was 0.8221 ± 0.0053 mPa·s, the viscosity (303.15 K, 100 kPa, x1 = 0.00269) was 0.827 ± 0.0053 mPa·s and the viscosity (303.15 K, 100 kPa, x1 = 0.00314) was 0.8324 ± 0.0053 mPa·s. It also gave a viscosity (303.15 K, 100 kPa, x1 = 0.003502) of 0.883 ± 0.041 mPa·s, a viscosity (303.15 K, 100 kPa, x1 = 0.00359) of 0.8369 ± 0.0054 mPa·s and a viscosity (303.15 K, 100 kPa, x1 = 0.005397) of 0.928 ± 0.041 mPa·s. The viscosity (303.15 K, 100 kPa, x1 = 0.007209) was 0.972 ± 0.041 mPa·s, the viscosity (303.15 K, 100 kPa, x1 = 0.008575) was 1.003 ± 0.041 mPa·s and the viscosity (303.15 K, 101 kPa, x1 = 0.000452) was 0.8023 ± 0.017 mPa·s. The viscosity (303.15 K, 101 kPa, x1 = 0.0009) was 0.81 ± 0.017 mPa·s, the viscosity (303.15 K, 101 kPa, x1 = 0.00135) was 0.8182 ± 0.017 mPa·s and the viscosity (303.15 K, 101 kPa, x1 = 0.0018) was 0.8267 ± 0.018 mPa·s. The viscosity (303.15 K, 101 kPa, x1 = 0.002245) was 0.8352 ± 0.018 mPa·s, the viscosity (303.15 K, 101 kPa, x1 = 0.002695) was 0.8441 ± 0.018 mPa·s and the viscosity (308.15 K, 100 kPa, x1 = 0.00045) was 0.7231 ± 0.0048 mPa·s. The viscosity (308.15 K, 100 kPa, x1 = 0.0009) was 0.7274 ± 0.0048 mPa·s, the viscosity (308.15 K, 100 kPa, x1 = 0.00166) was 0.754 ± 0.04 mPa·s and the viscosity (308.15 K, 100 kPa, x1 = 0.00225) was 0.7396 ± 0.0048 mPa·s. It also gave a viscosity (308.15 K, 100 kPa, x1 = 0.00269) of 0.7436 ± 0.0049 mPa·s, a viscosity (308.15 K, 100 kPa, x1 = 0.00314) of 0.748 ± 0.0049 mPa·s and a viscosity (308.15 K, 100 kPa, x1 = 0.003502) of 0.794 ± 0.041 mPa·s. It also gave a viscosity (308.15 K, 100 kPa, x1 = 0.00359) of 0.7517 ± 0.0049 mPa·s, a viscosity (308.15 K, 100 kPa, x1 = 0.005397) of 0.832 ± 0.041 mPa·s and a viscosity (308.15 K, 100 kPa, x1 = 0.007209) of 0.871 ± 0.041 mPa·s. It also gave a viscosity (308.15 K, 100 kPa, x1 = 0.008575) of 0.9 ± 0.041 mPa·s, a viscosity (308.15 K, 101 kPa, x1 = 0.0004) of 0.724 ± 0.007 mPa·s and a viscosity (308.15 K, 101 kPa, x1 = 0.000452) of 0.7238 ± 0.015 mPa·s. It also gave a viscosity (308.15 K, 101 kPa, x1 = 0.0007) of 0.73 ± 0.007 mPa·s, a viscosity (308.15 K, 101 kPa, x1 = 0.0009) of 0.7311 ± 0.015 mPa·s and a viscosity (308.15 K, 101 kPa, x1 = 0.001) of 0.743 ± 0.007 mPa·s. For the same molecule, the viscosity (308.15 K, 101 kPa, x1 = 0.00135) was 0.7387 ± 0.016 mPa·s, the viscosity (308.15 K, 101 kPa, x1 = 0.0018) was 0.747 ± 0.007 mPa·s and 0.7467 ± 0.016 mPa·s and the viscosity (308.15 K, 101 kPa, x1 = 0.002245) was 0.7546 ± 0.016 mPa·s. For the same molecule, the viscosity (308.15 K, 101 kPa, x1 = 0.002695) was 0.7628 ± 0.016 mPa·s, the viscosity (313.15 K, 100 kPa, x1 = 0.00045) was 0.6557 ± 0.0045 mPa·s and the viscosity (313.15 K, 100 kPa, x1 = 0.0009) was 0.6589 ± 0.0045 mPa·s. It also gave a viscosity (313.15 K, 100 kPa, x1 = 0.0013) of 0.6623 ± 0.0045 mPa·s, a viscosity (313.15 K, 100 kPa, x1 = 0.00166) of 0.68 ± 0.04 mPa·s and a viscosity (313.15 K, 100 kPa, x1 = 0.0018) of 0.6658 ± 0.0045 mPa·s. For the same molecule, the viscosity (313.15 K, 100 kPa, x1 = 0.00225) was 0.6691 ± 0.0045 mPa·s, the viscosity (313.15 K, 100 kPa, x1 = 0.00269) was 0.6723 ± 0.0045 mPa·s and the viscosity (313.15 K, 100 kPa, x1 = 0.00314) was 0.6751 ± 0.0046 mPa·s. For the same molecule, the viscosity (313.15 K, 100 kPa, x1 = 0.003502) was 0.72 ± 0.04 mPa·s, the viscosity (313.15 K, 100 kPa, x1 = 0.005397) was 0.755 ± 0.04 mPa·s and the viscosity (313.15 K, 100 kPa, x1 = 0.007209) was 0.786 ± 0.041 mPa·s. For the same molecule, the viscosity (313.15 K, 100 kPa, x1 = 0.008575) was 0.81 ± 0.041 mPa·s, the viscosity (313.15 K, 101 kPa, x1 = 0.0004) was 0.657 ± 0.006 mPa·s and the viscosity (313.15 K, 101 kPa, x1 = 0.000452) was 0.6572 ± 0.014 mPa·s. The viscosity (313.15 K, 101 kPa, x1 = 0.0007) was 0.662 ± 0.006 mPa·s, the viscosity (313.15 K, 101 kPa, x1 = 0.0009) was 0.664 ± 0.014 mPa·s and the viscosity (313.15 K, 101 kPa, x1 = 0.001) was 0.668 ± 0.006 mPa·s and 0.673 ± 0.006 mPa·s. For the same molecule, the viscosity (313.15 K, 101 kPa, x1 = 0.00135) was 0.6712 ± 0.014 mPa·s, the viscosity (313.15 K, 101 kPa, x1 = 0.0018) was 0.6786 ± 0.014 mPa·s and the viscosity (313.15 K, 101 kPa, x1 = 0.002245) was 0.6861 ± 0.015 mPa·s. The viscosity (313.15 K, 101 kPa, x1 = 0.002695) was 0.6938 ± 0.015 mPa·s, the viscosity (318.15 K, 100 kPa, x1 = 0.00166) was 0.614 ± 0.04 mPa·s and the viscosity (318.15 K, 100 kPa, x1 = 0.003502) was 0.647 ± 0.04 mPa·s. For the same molecule, the viscosity (318.15 K, 100 kPa, x1 = 0.005397) was 0.679 ± 0.04 mPa·s, the viscosity (318.15 K, 100 kPa, x1 = 0.007209) was 0.708 ± 0.04 mPa·s and the viscosity (318.15 K, 100 kPa, x1 = 0.008575) was 0.726 ± 0.04 mPa·s. It also gave a viscosity (318.15 K, 101 kPa, x1 = 0.0004) of 0.6 ± 0.006 mPa·s, a viscosity (318.15 K, 101 kPa, x1 = 0.000452) of 0.6015 ± 0.013 mPa·s and a viscosity (318.15 K, 101 kPa, x1 = 0.0007) of 0.605 ± 0.006 mPa·s. The viscosity (318.15 K, 101 kPa, x1 = 0.0009) was 0.6079 ± 0.013 mPa·s, the viscosity (318.15 K, 101 kPa, x1 = 0.001) was 0.61 ± 0.006 mPa·s and 0.615 ± 0.006 mPa·s and the viscosity (318.15 K, 101 kPa, x1 = 0.00135) was 0.6147 ± 0.013 mPa·s. The viscosity (318.15 K, 101 kPa, x1 = 0.0018) was 0.619 ± 0.006 mPa·s and 0.6217 ± 0.013 mPa·s, the viscosity (318.15 K, 101 kPa, x1 = 0.002245) was 0.6287 ± 0.013 mPa·s and the viscosity (318.15 K, 101 kPa, x1 = 0.002695) was 0.6359 ± 0.013 mPa·s. It also gave a viscosity (323.15 K, 100 kPa, x1 = 0.00166) of 0.557 ± 0.04 mPa·s, a viscosity (323.15 K, 100 kPa, x1 = 0.005397) of 0.613 ± 0.04 mPa·s and a viscosity (323.15 K, 100 kPa, x1 = 0.007209) of 0.639 ± 0.04 mPa·s. The viscosity (323.15 K, 100 kPa, x1 = 0.008575) was 0.654 ± 0.04 mPa·s.

Source: the CheMixHub viscosity set
